The source gives no read counts; variants with many changes may rest on few reads.
B1: CPEB3 Ribozyme (parent)
chain: UAACAGGGGGCCACAGCAGAAGCGUUCACGUCGCAGCCCCUGUCAGAUUCUGGUGAAUCUGCGAAUUCUGCUGUAUAUCUC

Variants of: B1
Experiment: self-cleavage, relative activity (ratio to wild type); higher = more cleavage; in vitro, sequencing
Summary of the method: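 Relative activity was defined as the cleaved/total read fraction for a variant divided by the same fraction for the unmutated ribozyme. CPEB3 self-cleaving ribozyme libraries were made by rounds of error-prone PCR, barcoded, and transcribed in vitro with T7 RNA polymerase for 5 hours at 37°C, and cleavage ran through transcription plus a 15 min DNase I step before EDTA. Illumina sequencing of template-switched reverse transcripts gave the reads, and DNA sequencing mapped the barcodes. Averages come from three batches, using variants with at least 5 reads.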

Variant | self-cleavage
A13G A20U U67G U72A | 0.2
A13G A18U A28G U49A U58C U60C | 0.15
A13G A21U A35U A56G A65G | 0.08
A13C A15U A20U U80A | 0.14
A13G A45U U60C | 0.3
A13C G24A U41C A56U A77U U78C | 0.13
A13G A21G C59U U67C | 0.1
A13G A15G U72G C79U | 0.43
A13C U69C U74C | 0.64
A13G A57C U58C | 0.19
A13G A20G U26A G61U U69A | 0.08
A13G A15G U80C | 0.58
A13G A45U U66C U72C C81U | 0.22
A13G A18U A65G | 0.17
A13G A18G U25C G30A U41C U49C | 0.05
A13G A35G A77U | 0.85
A13G A20G U69C U72C | 0.16
A13G A28G A56G | 0.2
A13G A35G U41A A64U | 0.11
A13G A21G G22C G24A U26C | 0.09
A13C A18G U25A | 0.26
A13G A45U U54C U60A A75G A77U | 1.13
A13G A28G G73U | 0.79
A13G A15U C62A U66C U74C A75G | 0.1

Variant | self-cleavage
A13C A21G U41A A65G | 0.15
A13G A18U U41G G55U U58A U67A | 0.07
A13C A35G A45U G61U C79U | 0.95
A13G A35G C68A | 0.23
A13G A15C G55U U80C | 0.53
A13G A28G A45U | 0.24
A13G A21G U41A A45G U51A G53U | 0.37
A13C A45G A65G A75G | 0.34
A13G A15C U25A U41A A45G | 0.47
A13G A21G U41A A64C | 0.06
A13G A21U A28G A45G U54C A77U U80C | 0
A13G A45G U54C C62A U80C | 0.2
A13G A28G C38U U76C | 0.44
A13C A35U U49C A56G U58C A64U | 0.17
A13G A18G A20G C38A U51A U67A A77G | 0.05
A13G A15G U58A U76A U80C | 0.39
A13G A18U A21G | 0.21
A13G A15U A56G | 0.41
A13G A45C U58C | 0.05
A13G A21G A56U | 0.33
A13C C17U U25C U80C | 0.42
A13G A45G U69A U72A | 0.13
A13C A28U A35G U41C U54A U60C | 0.57
A13G A18U A28U U31A U54A A56U A65U | 0.07

Variant | self-cleavage
A13G A21G A28U A57G A64U | 0.1
A13C U25G U69C U78A | 0.17
A13G A20G C71A | 0.25
A13G A18G U41G U69A | 0.34
A13G A35G U49A U69C | 0.16
A13G A20G G52C A57G A77G | 0.61
A13G A28G U31C A35U A45U | 0.18
A13G A28G G46U U54A U78C U80C | 0.05
A13G A47G C68A U69C G73A | 0.23
A13G A45G U66C U72A | 0.24
A13C C23U U54C U72A U74C | 0.09
A13G A20U U54C | 0.24
A13G A18U A20U | 0.09
A13G A20U C50U A65C | 0.05
A13G A21G C79U | 0.69
A13G A21G A35G U51C | 0.11
A13G A35U U43A A45G | 0.31
A13C U41C U51G A64G U67C | 0.23
A13C U41C A56U U69C | 0.3
A13G A35U U51C A56U A64U | 0.15
A13G A45G U60A | 0.27
A13G A56U U66C | 0.16
A13G A20U G33A A64G | 0.16
A13C G33U U41G U60C U72C | 0.08

Variant | self-cleavage
A13G A35G U51C A57U | 0.16
A13G A45G C50A U54C U60C U76A | 1.06
A13G A28U G30C U72C U74C | 0.05
A13G A21G U25C U69A U78C | 0.04
A13G A45G U48C U66C | 0.58
A13G A35C U43A A64U | 0.25
A13C A64G U69C U78C | 0.16
A13G A35G U72C | 0.77
A13G A18G A28G A57U | 0.41
A13G A18G U67A | 0.23
A13G A18G C44U U67A | 0.05
A13C A35U A47G U80C | 0.97
A13C A18U U60A U72C | 0.19
A13G A15G U41A U51A U58C | 0.17
A13G A45U U49C G63A A75G | 0.09
A13G A20G U72C | 0.45
A13G A20U G33A U66C | 0.07
A13G A15U A47G A57C A75U | 0.42
A13C U43C A47G | 0.42
A13C U25C U51A U66C | 0.21
A13G A18G G52A U66C | 0.13
A13G A21G U26C A45U U60C A65G | 0
A13G A15G A35U C50U G55C A56U U80A | 0.04
A13G A20U A28U C37U | 0.1

Variant | self-cleavage
A13G A56U A75G | 0.41
A13G A15G U25C A28C U51C | 0.48
A13G A20U A57G U66C | 0.12
A13G A15G A47U | 0.45
A13G A35U U43C U49A U60C A64G C71U | 0.04
A13G A18G C32U C50U U78C | 0.02
A13C A20U A35G U74C | 0.98
A13C C39A U67C | 0.03
A13G A21G A45G U76C U78G | 0.32
A13G A15G A18U | 0.3
A13G A18C C29U U60C | 0.04
A13G A18G U25C U41A U66C A75G | 0.39
A13C C40U U49G A57G | 0.13
A13G A21G U74C | 0.61
A13G A28G A77G | 0.38
A13G A18G A21G A28G C32U U41C A57G | 0
A13G A20G A28G C29U C39A C40U | 0.09
A13C A18G U41C U51C A56G U72C | 0.2
A13G A21G C39G U54A A77G | 0.3
A13C U31C A56G A65G G73A | 0.23
A13C A45U U51A A57G | 0.16
A13G A35G U43A U49C A64G | 0.06
A13C U43G U60C C79U | 0.27
A13G A28G U66C | 0.36

Variant | self-cleavage
A13G A21G U54C U69C | 0.09
A13C C27A A35G U41C | 0.41
A13G A20G A47G U78C | 0.62
A13G A20G U51C U67C | 0.87
A13C A21G C50A U51C U78C | 0.48
A13G A21U C23A A45G A47G U72C | 0.03
A13G A28G C40U U43C | 0.26
A13G A56C U66C | 0.04
A13C U26C U72C | 0.21
A13C U54C U76A | 1.19
A13C U43C A56G G73A | 0.59
A13G A45U A64G | 0.25
A13G A21G U26C | 0.45
A13G A20G A35C G46A U67A U69C | 0.11
A13G A18U A28U A35G A45G G63A | 0.06
A13G A20G U51C U72C | 0.41
A13G A28G U41C U49A U60C U66C U72C | 0.1
A13G A21G C44U U76A | 0.09
A13G A20C U54C G73A | 0.17
A13G A57G A64G U67C | 0.14
A13G A45G U49A | 0.21
A13C U31C C32U U43A A64G | 0.16
A13C U60C C62U U66C | 0.14
A13G A45U U58C A75G | 0.2

Variant | self-cleavage
A13C U49C A56G U69C U78A | 0.44
A13G A28C U41C C81U | 0.37
A13C U43G A47G | 0.33
A13G A47U U76A | 0.3
A13G A45G G73A A77G | 1.2
A13G A35C A56C U69C G70U | 0.06
A13G A28G U51A U66A U80C | 0.24
A13G A28G U49C U69A | 0.15
A13C C23A A45G U51A A56G | 0.16
A13C A56U U78C | 0.75
A13G A28C A35U | 0.22
A13G A15G A28G U69A | 0.07
A13G A20G A56U C68A | 0.23
A13G A35G U43C A75C | 0.17
A13G A21U A35G C37A U41C U80C | 0.25
A13C A35G U54C | 1.28
A13G A35G A56G U74C U80C | 0.97
A13C A15U G24C A35G C39A U69A | 0.2
A13G A20U A21U G46C U48C A56U | 0.09
A13G A15U U54C U60A G61C U74C | 0.05
A13G A20G C32U G53A G61C C68U U80A | 0.03
A13C C17G A20G U26C U49C A57G U58C | 0.05
A13G A15G G33A U72C | 0.42

From the RNAGym collection of RNA variant scans (doi:10.1093/nar/gkz1192)
